Experimental data reported in PubChem BioAssay AID1919000 (Molecular Pharmacology Branch, DTP, NCI, 2023).
The source holds more than one record for some entries. They are shown here; other results are not. There may be further records. Values that stand side by side repeat one measurement in other runs, samples, wells, individuals or studies. Signs of the kind (2×) say how often a value occurs here. Marks such as [2022-09] give the month of the run.

Test system: 653999-131-R-J2-PDC complex spheroids, growth % test/control
Experiment: Anticancer human tumor 653999-131-R-J2-PDC patient-derived lung adenocarcinoma cell line growth inhibition [AhR]
Conditions: for viability, T/C: stronger effect = lower value; for IC50: compound alone
Description: Multicellular complex tumor spheroid response to aryl hydrocarbon receptor antagonists in combination with a variety of drugs and investigational agents in selected tumor cell lines
The current study was undertaken to assess response to aryl hydrocarbon receptor antagonists in combination with standard-of-care drugs and investigational agents in solid tumor complex spheroid models. Complex spheroids include a stromal component modeled by human endothelial cells (HUVEC) and fibroblasts modeled by human mesenchymal stem cells (MSCs). The concentration ranges selected for each drug and investigational agent were based upon clinically achievable concentrations if the clinical Cmax of the agent was known.
Compounds. The drugs and investigational agents: BAY 2416964 (NSC825713), GNF351 (NSC835774), CH-223191 (NSC835775), CPI-455 (NSC825282), aza-TdCyd (NSC777586), decitabine (NSC127716), belinostat (NSC758774), entinostat (NSC756642), pevonedistat (NSC761192), tazemetostat (NSC777109), talazoparib (NSC765396), olaparib (NSC753686), selinexor (NSC780203), nedisertib (M3814, NSC802822), bortezomib (NSC756655), venetoclax (NSC766270), doxorubicin (NSC123127), elimusertib (BAY189344, NSC800525), ceralasertib (AZD6738, NSC777638), TAK-243 (NSC785004), alisertib (NSC759677), etoposide (NSC141540), topotecan (NSC609699), eribulin (NSC707389), gemcitabine (NSC613327), carboplatin (NSC241240), cisplatin (NSC119875), and SN-38 (NSC673596) were obtained from the National Cancer Institute (NCI) Developmental Therapeutics Program Chemical Repository (32). The FDA-approved anticancer drug set is available from the Developmental Therapeutics Program at https://dtp.cancer.gov/organization/dscb/obtaining/available plates.htm. […] The stock solutions were prepared in dimethyl sulfoxide (DMSO, Sigma-Aldrich, St. Louis, MO, cat. D2650), except for the platinum compounds which were prepared in saline (Quality Biological, Gaithersburg, MD, cat. 114-055-101), at 800-fold the tested concentration and stored at -70 degrees C prior to their use. All drugs and investigational agents were tested over a range starting from a high concentration at or near the clinical Cmax and decreasing in half-log increments. If the clinical Cmax for an agent had not been determined, the highest concentration tested was 10 microM (Table 1).
Cell Culture. All cells were maintained in an incubator at 37 degrees C and 5% CO2 with 95% humidity. The PDC lines were cultured according to standard operating procedures established by the NCI PDMR (https://pdmr.cancer.gov). Briefly, all PDCs were thawed and cultured in Matrigel-coated flasks prepared with a working solution of 1X Ham's F-12 nutrient mix, without supplementation (Invitrogen, Waltham, MA, cat. 11765054), 100 U/mL penicillin-streptomycin (Invitrogen, cat. 15140122), and 2.5% Matrigel (Corning Inc., Corning, NY, cat. 354248) for the first three passages. All PDCs were cultured in complete DMEM/F-12 media containing advanced DMEM/F-12 (Invitrogen, cat. 12634028), 4.9% defined fetal bovine serum, heat inactivated (HyClone Laboratories Inc., Logan, UT, cat. SH30070.03HI), 389 ng/mL hydrocortisone (Sigma-Aldrich, cat. H4001), 9.7 ng/mL human EGF recombinant protein (Invitrogen, cat. PHG0313), 23.4 microg/mL adenine (Sigma-Aldrich, cat. A2786), 97.3 U/mL penicillin-streptomycin (Invitrogen, cat. 15140122), 1.9 mM L-glutamine (Invitrogen, cat. 25030081), and 9.7 microM Y-27632 dihydrochloride (Tocris Bioscience, Bristol, United Kingdom, cat. 1254). The PDCs were cultured in complete DMEM/F12 media without 10 microM Y-27632 dihydrochloride for at least two passages prior to the screen. The established cell lines NCI-H1341 and […] were cultured in DMEM/F-12, HEPES (Invitrogen, cat. 11330032), 5% defined fetal bovine serum (HyClone Laboratories Inc., cat. SH30070.03), ITS premix universal culture supplement [insulin (5 microg/mL), transferrin (5 microg/mL), and selenious acid (5 ng/mL)] […]
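Also: spheroids exposed to agents for seven days.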

Structure (SMILES)	viability, T/C (compound alone 3.16 µM)	IC50 (run of 06/06/2022)	IC50	viability, T/C (compound alone 0.316 µM)	viability, T/C (compound alone 10 µM)	viability, T/C (compound alone 1 µM)
Cc1cncc(-c2nc(NCCc3c[nH]c4ccccc34)c3ncn(C(C)C)c3n2)c1	94.7, 96, 107 (2×), 105 (2×), 99.8, 102, 118, 92.1, 112, 103, 106 (3×), 104, 121, 81, 101, 109%	9.17 µM, > 10 µM, 9.42 µM, 9.88 µM, 9.87 µM, 9.7 µM, 9.99 µM, 9.58 µM, 8.38 µM	–	–	–	–
Nc1ccn(C2OC(CO)C(O)C2(F)F)c(=O)n1 (stereo not given)	–	–	4.08 µM [2022-05] and 379 nM, 460 nM [2022-06]	–	–	–
Cc1ccccc1N=Nc1ccc(NC(=O)c2ccnn2C)c(C)c1	97.2, 77.7, 87.6, 104, 88.8, 94.3, 90.2, 101 (2×), 92, 82, 85.4, 81.2, 103, 94.6, 89.7, 98, 85.8, 106, 97.1%	–	–	94, 93, 95.8, 101, 96, 103, 95.5, 99.1, 92.2, 92.5, 93.7, 91.8, 100, 89.5, 96.4, 81.9, 87.5, 102, 99.2, 108%	92.2, 84.8, 84.3, 107 (2×), 92.8, 89.5, 84.4, 89.8, 85.7, 79.8, 91.1, 75.2, 96.4, 81.9, 82.4, 99.3, 76, 102, 87.5, 98.9%	–
CC(CO)NC(=O)c1cc(-c2ccc(Cl)cc2)nn(-c2cnn(C)c2)c1=O (stereo not given)	109, 116 (2×), 85.6, 102, 92.6, 93.5, 98.5 (2×), 95.4, 96.5, 87.7, 101, 106, 111, 122, 86.6, 119, 90.4%	–	–	104 (2×), 110, 97.5, 91.7, 98.2, 96.3, 91.2, 90.8, 89.8, 93, 105, 94.3 (2×), 78.3, 91, 102, 101, 89.7, 92.4, 94.5%	99.2, 99.9, 85.1, 115, 107 (2×), 87.7, 83.1, 87.3, 123, 94.2, 89.5, 105 (2×), 99.7, 114, 127, 89.3, 83%	92.1, 102, 95.8, 92, 91.7, 94.9, 98.7, 83.2, 98.4, 108, 114, 81, 86.9, 91.9, 91.8, 106 (2×), 99.5, 87.9, 89, 77.8%
